We go through one protein from article PMC7807415.

Substrate in this series: CN1C(C(=O)Nc2nccs2)=C(O)c2ccccc2S1(=O)=O
In words: cells, lysate or membranes named. The note with it: other: sudoxicam -> glyoxal (bioactivation), recombinant CYP 3A4; pH 7.4.

B1: CYP3A4 (Homo sapiens) (protein)
chain: MALIPDLAMETWLLLAVSLVLLYLYGTHSHGLFKKLGIPGPTPLPFLGNILSYHKGFCMFDMECHKKYGKVWGFYDGQQPVLAITDPDMIKTVLVKECYSVFTNRRPFGPVGFMKSAISIAEDEEWKRLRSLLSPTFTSGKLKEMVPIIAQYGDVLVRNLRREAETGKPVTLKDVFGAYSMDVITSTSFGVNIDSLNNPQDPFVENTKKLLRFDFLDPFFLSITVFPFLIPILEVLNICVFPREVTNFLRKSVKRMKESRLEDTQKHRVDFLQLMIDSQNSKETESHKALSDLELVAQSIIFIFAGYETTSSVLSFIMYELATHPDVQQKLQEEIDAVLPNKAPPTYDTVLQMEYLDMVVNETLRLFPIAMRLERVCKKDVEINGMFIPKGVVVMIPSYALHRDPKYWTEPEKFLPERFSKKNKDNIDPYIYTPFGSGPRNCIGMRFALMNMKLALIRVLQNFSFKPCKETQIPLKLSLGGLLQPEKPVVLKVESRDGTVSGA
Consider B1, for which the Km is 29 ± 5.8 µM.

In general, Km refers to the substrate concentration at which the rate is half of its maximum.
